# Measured values as given in the supplement of paper PMC10600219.
# Structures can show the parent of a compound that is named as a salt. The full ranking holds about 2,800 compounds; the median of “cell viability relative to vehicle” is about 1.1, and the lowest 2% start at about 0.19. The list shows a part of the results.
# Tested on: NCI-H2228 parental
# Assay: cell viability relative to vehicle (fraction of vehicle); NCI-H2228 is an ALK-positive lung cancer line and DTP means drug-tolerant persister; higher = less growth inhibition
# Settings: 100 nM; treatment time 6 days
# In short: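 Drug-tolerant persister NCI-H2228 cells, produced by 13 days in 1000 nM of a targeted drug, and their parental counterparts were seeded into 384-well plates and, the following day, given the 3114-agent TargetMol anti-cancer compound library at 100 nM or DMSO vehicle. After 6 days, the CellTiter-Glo 3D Cell Viability Assay was used to read ATP. Each entry reports viability compared with vehicle-treated cells.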
row,SMILES,cell viability
1,O=C(O)CSCC(=O)NC1CCSC1=O (stereo unspecified) [Erdosteine],1.03
2,COc1cc(/C=C/C(=O)CC(=O)/C=C/c2ccc(O)c(OC)c2)ccc1O [Curcumin],1.03
3,O=C1c2cccc3c2[C@H](CCC3)CN1[C@@H]1CN2CCC1CC2 [Palonosetron hydrochloride],1.03
4,Cn1cnc([N+](=O)[O-])c1Sc1ncnc2[nH]cnc12 [Azathioprine],0.882
5,CC(C)C(=O)Nc1ccc([N+](=O)[O-])c(C(F)(F)F)c1 [Flutamide],1.14
6,CC1(C)CCC2=C(O1)c1ccccc1C(=O)C2=O [Beta-Lapachone],1.03
7,CC(=O)OCC[N+](C)(C)C [Acetylcholine chloride],1.06
8,S=C(NCc1ccc2c(c1)OCO2)N1CCN(c2ncnc3c2oc2ccccc23)CC1 [Amuvatinib],0.893
9,C[C@H](CCC(=O)O)[C@H]1CC[C@H]2[C@@H]3CC[C@@H]4C[C@H](O)CC[C@]4(C)[C@H]3CC[C@]12C [Lithocholic acid],0.83
10,CC(C)=CCc1cc2c(cc1O)oc(=O)c1c3ccc(O)cc3oc21 [Psoralidin],1.08
11,Cc1cc(C)nc(NC(=S)N2CCN(Cc3ccc(C(F)(F)F)cc3)CC2)c1,1.15
12,CCOc1cc(C(C)(C)C)ccc1C1=N[C@@](C)(c2ccc(Cl)cc2)[C@@](C)(c2ccc(Cl)cc2)N1C(=O)N1CCN(CCCS(C)(=O)=O)CC1,1.1
13,CCOC(=O)Nc1ccc(NCc2ccc(F)cc2)nc1N [Flupirtine maleate],1.02
14,CC1COc2c(N3CCN(C)CC3)c(F)cc3c(=O)c(C(=O)O)cn1c23 (stereo unspecified) [Ofloxacin],1.06
15,O=C(/C=C/N1C[C@H]2C[C@@H]1CN2c1ccccn1)c1ccccc1O,1.2
16,OCc1ccccn1 [2-(Hydroxymethyl)pyridine],1.16
17,CN(C(=O)c1c(O)c2ccccc2n(C)c1=O)c1ccccc1 [Roquinimex],0.926
18,CC(C)Cc1ccc(C(C)C(=O)O)cc1 (stereo unspecified) [Ibuprofen],1.19
19,Nc1nc2[nH]cc(CCc3ccc(C(=O)N[C@@H](CCC(=O)O)C(=O)O)cc3)c2c(=O)[nH]1 [Pemetrexed Disodium Hydrate],0.187
20,CCN1CCN(Cc2ccc(Nc3ncc(F)c(-c4cc(F)c5nc(C)n(C(C)C)c5c4)n3)nc2)CC1,0.912
21,CCN1CCN(Cc2ccc(Nc3ncc(F)c(-c4cc(F)c5nc(C)n(C(C)C)c5c4)n3)nc2)CC1 [Abemaciclib],0.839
22,COCCc1ccc(OCC(O)CNC(C)C)cc1 (stereo unspecified) [Metoprolol tartrate],1.18

row,SMILES,cell viability
1,COCCc1ccc(OCC(O)CNC(C)C)cc1 (stereo unspecified) [Metoprolol Succinate],0.991
2,O=C(OCCOCCO)c1ccccc1Nc1cccc(C(F)(F)F)c1 [Etofenamate],1.1
3,O=C(O)c1cc(I)ccc1NC(=O)[C@H](Cc1ccccc1)NCc1ccccc1,1.04
4,O=c1c(O)c(-c2ccc(O)c(O)c2)oc2cc(O)cc(O)c12 [Quercetin],1.27
5,CN(C)CCCOc1ccc(-c2ccc3ncc4c(c3c2)n(C2CCOCC2)c(=O)n4C)cn1,0.704
6,COc1ccc(C2=N[C@H](c3ccc(Cl)cc3)[C@H](c3ccc(Cl)cc3)N2C(=O)N2CCNC(=O)C2)c(OC(C)C)c1 [Nutlin-3b],1.15
7,O=C(Nc1ccc([N+](=O)[O-])cc1O)Nc1ccccc1Br,1.05
8,O=C(c1cncc(Br)c1)N1CCC(N2CCCC2)CC1,1.09
9,O=C(O)C1(C(=O)O)CCC1.[NH2-].[NH2-].[Pt+2] [Carboplatin],1.03
10,COc1ccc(CC(=O)NC(/N=C(\NC#N)Nc2cccc3ncccc23)C(C)(C)C)cc1OC (stereo unspecified),1.05
11,Cc1c[nH]c(/C=C2\C(=O)Nc3ccccc32)c1CCC(=O)O,1.07
12,NCc1ccc(S(N)(=O)=O)cc1 [Mafenide hydrochloride],1.14
13,O=c1[nH]nc(Sc2ncc([N+](=O)[O-])s2)n1-c1ccc2c(c1)OCCO2,1.04
14,Cn1cc(-c2ccc(S(=O)(=O)n3ccc(/C=C/C(=O)Nc4ccccc4N)c3)cc2)cn1 [4SC-202 tosylate],0.923
15,CCc1oc2ccccc2c1C(=O)c1cc(Br)c(O)c(Br)c1 [Benzbromarone],1.04
16,C=C(c1ccc(C(=O)O)cc1)c1cc2c(cc1C)C(C)(C)CCC2(C)C [Bexarotene],1.05
17,O=c1cc(-c2ccc(O)cc2)oc2cc(O)c(O)c(O)c12 [Scutellarein],1.12
18,CN(C)CCCCC(=O)Nc1ccc(NC(=S)NC(=O)c2ccc(C(C)(C)C)cc2)cc1 [Tenovin-6],1.06
19,COc1cc2ncnc(Nc3ccccc3)c2cc1OC,1
20,CC(C)(C)NCC(O)c1cc(O)cc(O)c1 (stereo unspecified) [Terbutaline Sulfate],0.967
21,CC[N+](CC)(CC)CCOc1cccc(OCC[N+](CC)(CC)CC)c1OCC[N+](CC)(CC)CC [Gallamine triethiodide],1.04
22,CN1CCC[C@@H]1CCO[C@](C)(c1ccccc1)c1ccc(Cl)cc1 [Clemastine fumarate],1.06

row,SMILES,cell viability
1,CCOc1ccc(NC(C)=O)cc1 [Phenacetin],1
2,O=C(c1ccc(OCCCc2c[nH]cn2)cc1)C1CC1 [Ciproxifan],0.93
3,CC(C(=O)O)c1ccc(C(=O)c2cccs2)cc1 (stereo unspecified) [Suprofen],0.977
4,CN1CCN(c2nc(C3=C(c4c[nH]c5ccccc45)C(=O)NC3=O)c3ccccc3n2)CC1 [Sotrastaurin],1.17
5,COc1cc2ncnc(Nc3ccc(F)c(Cl)c3)c2cc1OCCCN1CCOCC1 [Gefitinib],0.969
6,COC(=O)[C@]12CCC(C)(C)C[C@H]1[C@H]1C(=O)C=C3[C@@]4(C)C=C(C#N)C(=O)C(C)(C)[C@@H]4CC[C@@]3(C)[C@]1(C)CC2 [Bardoxolone Methyl],1.15
7,Oc1cc(O)c(Cl)cn1 [Gimeracil],1.1
8,COc1ccc2cc(OCC3(C(=O)O)CN(C(=O)c4ccc(F)cc4)C3)ccc2c1,1.17
9,COc1ccc(N2C(=O)/C(=C\c3ccc([N+](=O)[O-])s3)SC2=S)cc1,0.574
10,CC1(C)CNc2cc(NC(=O)c3cccnc3NCc3ccncc3)ccc21 [Motesanib],1.04
11,COC(=O)C1=C(C)NC(C)=C(C(=O)OCCN(C)Cc2ccccc2)C1c1cccc([N+](=O)[O-])c1 (stereo unspecified) [Nicardipine hydrochloride],1.01
12,Cc1cc(-c2ccc(CC(=O)Nc3ccc(-c4cccnc4)cc3)cc2)ccn1,0.962
13,COc1ccc(C2CC(c3ccccc3)=NN2c2ccc(S(N)(=O)=O)cc2)cc1 (stereo unspecified),0.899
14,CCCC(=O)[O-].[Na+] [Sodium butanoate],1.26
15,COCCOc1ccc2c(c1)ncn2-c1ccc2cccc(N3CCC(N)CC3)c2n1,1.15
16,Cc1cc(Nc2cc(N3CCN(C)CC3)nc(/C=C/c3ccccc3)n2)n[nH]1,0.803
17,CNCc1cc(-c2ccccc2F)n(S(=O)(=O)c2cccnc2)c1 [Vonoprazan fumarate],1.18
18,Cc1nn(C)c2c1C(c1ccc(C(F)(F)F)cc1)C(C#N)=C(N)O2 (stereo unspecified),0.891
19,O=C1C(O)=C([C@H]2CC[C@H](c3ccc(Cl)cc3)CC2)C(=O)c2ccccc21 [Atovaquone],1.02
20,Cc1ccc(/C=C2\CNC/C(=C\c3ccc(C)cc3)C2=O)cc1,1.06
21,Cc1ccccc1C(OCCN(C)C)c1ccccc1 (stereo unspecified) [Orphenadrine hydrochloride],0.917
22,CN(C)CCOC(c1ccc(Cl)cc1)c1ccccn1 (stereo unspecified) [Carbinoxamine Maleate Salt],1.15

row,SMILES,cell viability
1,O=C1CCc2ccc(OCCCCN3CCN(c4cccc(Cl)c4Cl)CC3)cc2N1 [Aripiprazole],1.31
2,O=C(O)CNC(=O)c1nc(Cl)c2ccccc2c1O,0.934
3,NC(=O)NC1NC(=O)NC1=O (stereo unspecified) [Allantoin],0.86
4,CCOCc1nc2c(N)nc3ccccc3c2n1CC(C)(C)O [Resiquimod],1.06
5,CCCCCCCCCCCC1=C(O)C(=O)C=C(O)C1=O [Embelin],1.06
6,CCC(Sc1nnc2c(n1)[nH]c1ccccc12)C(=O)N1c2ccccc2Sc2ccccc21 (stereo unspecified) [Inauhzin],1.07
7,COc1c2ccoc2cc2oc(=O)ccc12 [Bergapten],1.06
8,CCN(CC)CCOc1ccc(C(=C(Cl)c2ccccc2)c2ccccc2)cc1 [Clomifene citrate],1.02
9,C[C@]1(COc2ccc(N3CCC(Oc4ccc(OC(F)(F)F)cc4)CC3)cc2)Cn2cc([N+](=O)[O-])nc2O1 [Delamanid],0.9
10,CC(C)=CCC/C(C)=C/CC/C(C)=C/CSc1ccccc1C(=O)O [Salirasib],1.19
11,CCCCCOC(=O)Nc1nc(=O)n([C@@H]2O[C@H](C)[C@@H](O)[C@H]2O)cc1F [Capecitabine],1.25
12,COc1cc2ncnc(Oc3ccc(CC(=O)Nc4cnn(C(C)C)c4)cc3)c2cc1OC,1.21
13,CN1CCC(=C2c3ccccc3CCc3sccc32)CC1 [Pizotifen],1.36
14,CN1CCC(=C2c3ccccc3CCc3sccc32)CC1 [Pizotifen Malate],0.978
15,COc1ncc(-c2ccc3nccc(-c4ccnnc4)c3c2)cc1NS(=O)(=O)c1ccc(F)cc1F [Omipalisib],0.148
16,O=C(O)COCCN1CCN([C@H](c2ccccc2)c2ccc(Cl)cc2)CC1 [Levocetirizine],1.27
17,Cc1cc(-c2ncc(CC(=O)Nc3ccc(-c4cnccn4)cn3)cc2C)ccn1,1.04
18,Cc1cnc(C(=O)NCCc2ccc(S(=O)(=O)NC(=O)NC3CCCCC3)cc2)cn1 [Glipizide],0.99
19,COC(=O)/C=C/c1ccc(O)c(OC)c1,1.08
20,FC(F)(F)c1ccc(CNc2ccc(Cc3c[nH]c4ncc(Cl)cc34)cn2)cc1,1.07
